Measured values published in the supplement of paper PMC10126150.
Sequences with one replicate were seen in a single cluster, so their values are uncertain.

The sequences below were run on ATP (assay: switch fluorescence ratio, 500 uM ATP over buffer (Cy3 cluster intensity, sum of 5 cycles each) (fold (ratio)); higher = stronger signal-on switching upon ATP binding; sequences stand for … in TCGTCGGCAGCGTCAGATGTGTATAAGAGACAGTTTTTTTTTTTTTTTTTTTTTTTTT…TC). Conditions: aptamer strand: ATP DNA aptamer (quencher-CACCTGGGGGAGTATTGCGGAGGAAGG + anchor), 100 nM annealed; ATP concentration: 500 uM; one replicate.
Procedure, shortened: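 After annealing to 100 nM quencher-labelled ATP aptamer, Cy3-labelled switching-strand clusters on a modified Illumina MiSeq flow-cell were imaged in selection buffer. A second image followed after 15 min with 500 uM ATP at 22 °C, and five such buffer/ATP cycles were done, each separated by NaOH stripping and re-annealing. The fluorescence ratio, averaged per switch-domain sequence, is summed target-cycle over summed buffer-cycle Cy3 intensity per cluster, with clusters outside 100-1000 RFU excluded.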
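Note: ATP exposure 15 min at 22 °C before imaging.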

**Q.** For TGTCAGATGG, which switch fluorescence ratio is on record?
**A.** 0.965

**Q.** For TGTCATAAGA, which switch fluorescence ratio is on record?
**A.** 0.998

**Q.** Which switch fluorescence ratio does the source give for TGTCCATGGT here?
**A.** 1.02

**Q.** How did the switch fluorescence ratio turn out when TGTCCGTCTA was run?
**A.** 1.01

**Q.** TGTCCGTTG was tested. Which switch fluorescence ratio did it give?
**A.** 1.05

**Q.** TGTCCTGTCG was tested. Which switch fluorescence ratio did it give?
**A.** 1.07

**Q.** TGTCGATAAT was tested. Which switch fluorescence ratio did it give?
**A.** 1.02

**Q.** Which switch fluorescence ratio does the source give for TGTCGATCAG here?
**A.** 1.01

**Q.** How did the switch fluorescence ratio turn out when TGTCGGCCTT was run?
**A.** 0.984

**Q.** TGTCGTAGAA was tested. Which switch fluorescence ratio did it give?
**A.** 0.946

**Q.** With TGTCGTAGCT as the sequence, how does the switch fluorescence ratio read?
**A.** 1.01

**Q.** How did the switch fluorescence ratio turn out when TGTCGTGAAG was run?
**A.** 1.06

**Q.** Which switch fluorescence ratio does the source give for TGTCGTTAGG here?
**A.** 1

**Q.** Which switch fluorescence ratio does the source give for TGTCGTTC here?
**A.** 1.02

**Q.** For TGTCGTTTGG, which switch fluorescence ratio is on record?
**A.** 0.962

**Q.** With TGTCTGTAAT as the sequence, how does the switch fluorescence ratio read?
**A.** 1

**Q.** Which switch fluorescence ratio does the source give for TGTCTTTCCC here?
**A.** 0.996

**Q.** With TGTCTTTTAG as the sequence, how does the switch fluorescence ratio read?
**A.** 1.01

**Q.** How did the switch fluorescence ratio turn out when TGTGACAATT was run?
**A.** 0.972

**Q.** Which switch fluorescence ratio does the source give for TGTGACGCGC here?
**A.** 1.27

**Q.** Which switch fluorescence ratio does the source give for TGTGAGCGTG here?
**A.** 1.01

**Q.** TGTGAGGGGC was tested. Which switch fluorescence ratio did it give?
**A.** 0.999

**Q.** Which switch fluorescence ratio does the source give for TGTGAGGTAC here?
**A.** 1

**Q.** With TGTGAGTATC as the sequence, how does the switch fluorescence ratio read?
**A.** 0.963

**Q.** With TGTGAGTGTT as the sequence, how does the switch fluorescence ratio read?
**A.** 0.986

**Q.** How did the switch fluorescence ratio turn out when TGTGATTATC was run?
**A.** 0.993

**Q.** With TGTGATTTAG as the sequence, how does the switch fluorescence ratio read?
**A.** 0.98

**Q.** How did the switch fluorescence ratio turn out when TGTGCAAGCA was run?
**A.** 0.955

**Q.** For TGTGCAAGCG, which switch fluorescence ratio is on record?
**A.** 1

**Q.** TGTGCTAACT was tested. Which switch fluorescence ratio did it give?
**A.** 0.978

**Q.** For TGTGCTCAAC, which switch fluorescence ratio is on record?
**A.** 1.03

**Q.** With TGTGCTGAGT as the sequence, how does the switch fluorescence ratio read?
**A.** 0.985

**Q.** Which switch fluorescence ratio does the source give for TGTGGAAGCA here?
**A.** 1.02

**Q.** Which switch fluorescence ratio does the source give for TGTGGACGTC here?
**A.** 1.05

**Q.** With TGTGGATGTG as the sequence, how does the switch fluorescence ratio read?
**A.** 0.992

**Q.** Which switch fluorescence ratio does the source give for TGTGGCGC here?
**A.** 0.98

**Q.** How did the switch fluorescence ratio turn out when TGTGGGAGTG was run?
**A.** 0.973

**Q.** TGTGGGCGGT was tested. Which switch fluorescence ratio did it give?
**A.** 1.3

**Q.** For TGTGGGGACG, which switch fluorescence ratio is on record?
**A.** 0.967

**Q.** TGTGGGTTAA was tested. Which switch fluorescence ratio did it give?
**A.** 1

**Q.** With TGTGGTGAGA as the sequence, how does the switch fluorescence ratio read?
**A.** 0.971

**Q.** For TGTGGTGCTC, which switch fluorescence ratio is on record?
**A.** 0.968

**Q.** TGTGGTTGAA was tested. Which switch fluorescence ratio did it give?
**A.** 0.987

**Q.** Which switch fluorescence ratio does the source give for TGTGTACTCT here?
**A.** 1.03

**Q.** How did the switch fluorescence ratio turn out when TGTGTCGACG was run?
**A.** 1.02

**Q.** Which switch fluorescence ratio does the source give for TGTGTCGCAA here?
**A.** 1.37

**Q.** How did the switch fluorescence ratio turn out when TGTGTGAATC was run?
**A.** 0.969

**Q.** Which switch fluorescence ratio does the source give for TGTGTGCTAA here?
**A.** 1.05

**Q.** TGTGTGGACG was tested. Which switch fluorescence ratio did it give?
**A.** 0.999

**Q.** Which switch fluorescence ratio does the source give for TGTGTGTGC here?
**A.** 1.02

**Q.** For TGTGTTAACA, which switch fluorescence ratio is on record?
**A.** 0.976

**Q.** For TGTGTTAACT, which switch fluorescence ratio is on record?
**A.** 0.968

**Q.** TGTGTTCATA was tested. Which switch fluorescence ratio did it give?
**A.** 1.02

**Q.** Which switch fluorescence ratio does the source give for TGTGTTCATT here?
**A.** 1.03

**Q.** For TGTGTTGCAT, which switch fluorescence ratio is on record?
**A.** 1.01

**Q.** For TGTGTTTATC, which switch fluorescence ratio is on record?
**A.** 1.03

**Q.** Which switch fluorescence ratio does the source give for TGTGTTTG here?
**A.** 0.996

**Q.** Which switch fluorescence ratio does the source give for TGTTAAAGTC here?
**A.** 0.992

**Q.** How did the switch fluorescence ratio turn out when TGTTAACACG was run?
**A.** 0.944

**Q.** With TGTTAACGTC as the sequence, how does the switch fluorescence ratio read?
**A.** 1.04

**Q.** TGTTAACTAC was tested. Which switch fluorescence ratio did it give?
**A.** 1.1

**Q.** TGTTACGCCA was tested. Which switch fluorescence ratio did it give?
**A.** 1.17

**Q.** Which switch fluorescence ratio does the source give for TGTTAGCGGG here?
**A.** 0.984

**Q.** How did the switch fluorescence ratio turn out when TGTTATAGAG was run?
**A.** 1.01

**Q.** For TGTTATAGTG, which switch fluorescence ratio is on record?
**A.** 0.995

**Q.** Which switch fluorescence ratio does the source give for TGTTATGTTC here?
**A.** 1.01

**Q.** For TGTTATTGA, which switch fluorescence ratio is on record?
**A.** 0.968

**Q.** With TGTTCATTTT as the sequence, how does the switch fluorescence ratio read?
**A.** 0.996

**Q.** TGTTCCTGAT was tested. Which switch fluorescence ratio did it give?
**A.** 0.973

**Q.** How did the switch fluorescence ratio turn out when TGTTCCTTGA was run?
**A.** 0.995

**Q.** With TGTTCCTTGG as the sequence, how does the switch fluorescence ratio read?
**A.** 0.962

**Q.** With TGTTCGCTGT as the sequence, how does the switch fluorescence ratio read?
**A.** 1.05

**Q.** With TGTTCGGGAA as the sequence, how does the switch fluorescence ratio read?
**A.** 1

**Q.** How did the switch fluorescence ratio turn out when TGTTCGTTAA was run?
**A.** 1.01

**Q.** How did the switch fluorescence ratio turn out when TGTTCTGCGT was run?
**A.** 1.05

**Q.** Which switch fluorescence ratio does the source give for TGTTGATAG here?
**A.** 1

**Q.** Which switch fluorescence ratio does the source give for TGTTGATGCG here?
**A.** 1.05

**Q.** How did the switch fluorescence ratio turn out when TGTTGCAGGG was run?
**A.** 1.03

**Q.** TGTTGCTATT was tested. Which switch fluorescence ratio did it give?
**A.** 0.993

**Q.** Which switch fluorescence ratio does the source give for TGTTGGGGTC here?
**A.** 0.996

**Q.** Which switch fluorescence ratio does the source give for TGTTGGGTAT here?
**A.** 1

**Q.** How did the switch fluorescence ratio turn out when TGTTGTCGCC was run?
**A.** 1.01

**Q.** For TGTTTACGAG, which switch fluorescence ratio is on record?
**A.** 0.999

**Q.** With TGTTTAGGCT as the sequence, how does the switch fluorescence ratio read?
**A.** 0.957

**Q.** TGTTTCCGAG was tested. Which switch fluorescence ratio did it give?
**A.** 1.09

**Q.** TGTTTGATTG was tested. Which switch fluorescence ratio did it give?
**A.** 0.979

**Q.** TGTTTGTT was tested. Which switch fluorescence ratio did it give?
**A.** 0.981

**Q.** With TGTTTTAAGA as the sequence, how does the switch fluorescence ratio read?
**A.** 0.972

**Q.** TGTTTTCAAG was tested. Which switch fluorescence ratio did it give?
**A.** 0.996

**Q.** TTAAAACTAC was tested. Which switch fluorescence ratio did it give?
**A.** 1.06

**Q.** For TTAAAATAG, which switch fluorescence ratio is on record?
**A.** 1

**Q.** For TTAAACACGA, which switch fluorescence ratio is on record?
**A.** 1.02

**Q.** How did the switch fluorescence ratio turn out when TTAAACCAAG was run?
**A.** 1.12

**Q.** For TTAAACGCGA, which switch fluorescence ratio is on record?
**A.** 1.31

**Q.** Which switch fluorescence ratio does the source give for TTAAATCAC here?
**A.** 1.05

**Q.** With TTAAATCTTC as the sequence, how does the switch fluorescence ratio read?
**A.** 1.06

**Q.** TTAAATGCAA was tested. Which switch fluorescence ratio did it give?
**A.** 1.08

**Q.** With TTAACAACA as the sequence, how does the switch fluorescence ratio read?
**A.** 1.05

**Q.** TTAACACCTT was tested. Which switch fluorescence ratio did it give?
**A.** 1

**Q.** Which switch fluorescence ratio does the source give for TTAACATCGC here?
**A.** 1.06

**Q.** TTAACCAG was tested. Which switch fluorescence ratio did it give?
**A.** 1.01
